In the supplement of paper PMC9174493:
The other results are listed elsewhere or left out. Single values of this set are uncertain. Values with irradiation are relative to irradiated vehicle.

These compounds were tested on A549-Dual (assay: NF-kB reporter (SEAP) activity, viability-corrected, relative to vehicle (fold change vs vehicle); higher = more activation of STING-IRF / NF-kB immune response reporter). Settings: 0.1 µM; irradiation: none.
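Note: viability correction based on the alamar blue assay, with concentrations leaving 10% survival or less dropped.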

| SMILES | NF-kB reporter |
| --- | --- |
| COC(=O)CC(O)(CCCC(C)(C)O)C(=O)OC1C(OC)=CC23CCCN2CCc2cc4c(cc2C13)OCO4 (configuration not stated) [Homoharringtonine] | 0.807 |
| CC(C(=O)[O-])c1ccc(CC2CCCC2=O)cc1.[Na+] (configuration not stated) [Loxoprofen Sodium] | 0.897 |
| C=C1c2cccc(O)c2C(=O)C2=C(O)C3(O)C(=O)C(C(N)=O)=C(O)C(N(C)C)C3C(O)C12.Cl (configuration not stated) [Methacycline HCl] | 1.09 |
| CC1CCC2(C(=O)OC3OC(COC4OC(CO)C(OC5OC(C)C(O)C(O)C5O)C(O)C4O)C(O)C(O)C3O)CCC3(C)C(=CCC4C5(C)CC(O)C(O)C(C)(CO)C5CCC43C)C2C1C (configuration not stated) [Asiaticoside] | 1.49 |
| Nc1nc(F)nc2c1ncn2C1OC(CO)C(O)C1O (configuration not stated) [Fludarabine] | 1.11 |
| O=NN(CCCl)C(=O)NC1CCCCC1 [Lomustine] | 1.11 |
| O=CC(O)C(O)C(O)C(O)COC1OC(CO)C(O)C(O)C1O (configuration not stated) [Melibiose] | 1.48 |
| O.S=c1nc[nH]c2nc[nH]c12 [6-Mercaptopurine (6-MP) Monohydrate] | 0.91 |
| CC(C(=O)O)c1cccc(C(=O)c2ccccc2)c1 (configuration not stated) [Ketoprofen] | 1.49 |
| CNC1CCC(c2ccc(Cl)c(Cl)c2)c2ccccc21.Cl (configuration not stated) [Sertraline HCl] | 0.857 |
| CC1(C)OC2CC3C4CCC5=CC(=O)CCC5(C)C4(F)C(O)CC3(C)C2(C(=O)CCl)O1 (configuration not stated) [Halcinonide] | 1.58 |
| CC(=O)OC12COC1CC(O)C1(C)C(=O)C(O)C3=C(C)C(OC(=O)C(O)C(NC(=O)OC(C)(C)C)c4ccccc4)CC(O)(C(OC(=O)c4ccccc4)C21)C3(C)C (configuration not stated) [Docetaxel] | 2.26 |
